According to the supplement of paper PMC10126150:
Sequences with one replicate were seen in a single cluster, so their values are uncertain.

Tested on: ATP
Test: switch fluorescence ratio, 500 uM ATP over buffer (Cy3 cluster intensity, sum of 5 cycles each) (fold (ratio)); higher = stronger signal-on switching upon ATP binding; sequences stand for … in TCGTCGGCAGCGTCAGATGTGTATAAGAGACAGTTTTTTTTTTTTTTTTTTTTTTTTT…TC
Conditions: aptamer strand: ATP DNA aptamer (quencher-CACCTGGGGGAGTATTGCGGAGGAAGG + anchor), 100 nM annealed; ATP concentration: 500 uM; one replicate
Outline: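 Cy3-labelled switching-strand clusters on a modified Illumina MiSeq flow-cell were annealed to 100 nM quencher-labelled ATP aptamer and imaged first in selection buffer, then after 15 min with 500 uM ATP at 22 °C. NaOH stripping and re-annealing separated each of five buffer/ATP cycles, and clusters outside 100-1000 RFU were excluded. The fluorescence ratio sums target-cycle Cy3 intensity over buffer-cycle Cy3 intensity per cluster and averages it per switch-domain sequence.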
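Further: ATP exposure 15 min at 22 °C before imaging.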

Sequence | switch fluorescence ratio
AGGACCCCGA | 1.04
TAATGTGTTT | 1.05
CAGGAACGGT | 0.956
AAGTACTCTA | 1.22
GGGGACCAAG | 1
GCTTTAGTAA | 0.983
AGTTTCTTGG | 0.982
AGACTGAAGT | 1.01
GGCGGGCAAG | 1.03
CGTGAAAGAA | 0.962
TGCAGCGAAC | 4.29
GTGCAGAGCC | 0.968
ACTTAGATTC | 1.02
GCATTTAAAG | 1.01
GGCCGTTAGA | 0.97
GGAGAATAAG | 1.01
GGAGGCGCGC | 0.946
AAGCTCTATT | 0.975
AGTTAAATCC | 1.02
CCGGCTACGA | 1.31
AGCAAGGATC | 1.17
AGAAATCAGG | 0.975
GTAATAGATC | 0.978
TCCCTGGGCG | 1.07
CATAAGAAAA | 1.02
TCGTGGGGCA | 0.958

Sequence | switch fluorescence ratio
CAGTCTCTCA | 0.974
TGGTTCGGTT | 0.987
ATTTAGGCGA | 1
TGGCGGCCAG | 1.03
GTAGGCTGGT | 1.04
AAGGCCCGAT | 1
GACCGGTTGC | 1.01
GCTTTTCACA | 0.949
GTAAACCCG | 1.15
AAGTGGGTGA | 0.978
GCGCACTCAG | 1.04
GGGCACACCG | 1.01
CGGGGCGGAC | 1.06
GCTTTGAGCG | 0.982
TTCTGCAGTT | 4.48
ACGACAGATA | 1.08
TTCCTACGCC | 2
AATGGCATT | 1.02
CGATTGATAA | 1.04
GATAGGACGT | 0.962
TTTTATCAGT | 1.01
ACGACTCCTG | 1.01
AAACTTGAGC | 0.99
AGAGTGCTTA | 1.01
TTCGCGTGTC | 1.07
GCAACAGAGT | 1.01

Sequence | switch fluorescence ratio
ATACATGATC | 1.02
TGGCACCATC | 1
ACGATTGGGG | 1.13
TCGACAGCTT | 1.34
GCGATAATA | 0.996
CCCCGGGCGT | 1.43
CATGGGTCAA | 1.04
AATAAAGTAA | 0.976
TTGACGGGG | 0.973
ACCCCTTGGT | 1.1
ATAGACAGAA | 1.03
GCATTCAAG | 0.986
AGCGGTTGGT | 0.939
TTTTGATCAG | 1
GGCTCGAGGT | 1.01
ACTCCATTCA | 1.06
AATACGGCGC | 1.04
GACTTATGGT | 0.996
AGATAGCCA | 0.995
TGCCTTAACC | 1.05
AAATGGCAGT | 0.994
AACGGTTTTA | 0.997
GAAAGAAAGT | 1.01
TTACGATCTT | 0.99
AAGGTGCTAG | 1.02
AACCACAAGC | 1.15

Sequence | switch fluorescence ratio
TAGATGATAA | 0.989
CGTACGGAA | 1.17
CAGGGTGTTA | 0.993
CACCTTACTG | 1.27
CAGATTCGGT | 0.993
ATGGGAGTCA | 0.973
AACGCTAT | 1.28
GGTTCAGTCT | 1.03
GCTTACTATT | 1.02
TAACGTACGA | 1.66
GCTTATTTTC | 0.971
GGACCCGTAG | 0.987
AAATATAAGA | 1.03
GCAACGGGGG | 0.997
ACATTAATGT | 1.03
GGGTTGCTCG | 0.994
GGAGACTAGA | 1.04
TAAATGTTTT | 1.14
AAGGTAGGTT | 1.11
CTCAGTCCCG | 0.972
TAAATTCGCG | 1.02
CAATACACTG | 1.18
CTTGATAGTT | 1.02
CCTTAGAGG | 0.98
CACTATACCA | 1.43
CCTTGGGTGC | 1.59

Sequence | switch fluorescence ratio
GCAATATAT | 1.18
AAAGATCTAG | 0.994
TGCATCCGGG | 1.05
GAGGTGCAGT | 1.02
CTGTAAAAAT | 0.977
CTGCTAGTT | 0.956
CGCCTCATC | 1.04
TACTAAACGC | 1.15
GTGTCACGTT | 0.977
TAATACAGGC | 1.03
GCTGCAGACA | 1.02
CGTAGTCGAG | 1.01
TAATGTGGTC | 0.914
ATGCTCGCTT | 0.998
TACAATACAC | 1.29
CACACTCTGG | 1.01
GTTATCGGCA | 0.964
ATTAGGATGC | 1.02
AAACCAGACT | 1.45
AATCTCGGGC | 0.989
TGCGTATAGT | 0.997
GCTAGTGCAA | 1.04
CGCCTAGCGG | 0.962
AACGTTTTAT | 1.03
TCAGAGGTTA | 0.992
GAAGTTATCC | 1.06

Sequence | switch fluorescence ratio
AGCCGAAGGC | 0.969
TAGGTAGCAA | 2.91
GTAATGTCGA | 0.978
ATCTCATTGA | 0.926
ATACGCGACT | 1.43
AGACGTTAAG | 1.01
AAACGTATAT | 1.04
AACGCTATTT | 1.13
GTTTGAGGAA | 0.973
TGAATAAAAC | 1.03
CTCAGCGCGA | 1.58
ACCCTGTGAG | 0.997
GTTACCCGTC | 1
TAGTGGGTG | 0.996
AGAGTAATA | 1.05
GCAGGTGGTC | 0.979
CAATTGTCGA | 1.03
GCGCGTCGGC | 0.981
CGTGACTTGG | 0.988
CCGAGGGGCT | 1.07
CTTGGTA | 0.975
GGCCATTAAT | 0.983
TAGCAGTCCG | 0.908
TGCATAGCCC | 0.988
TGGTACTCCT | 1.09
CGTTACGCAG | 1.02

Sequence | switch fluorescence ratio
CAGATCATTA | 0.966
GACTAGGCTC | 1
TGAGAAGTCT | 0.974
TGCTTGGCTT | 0.974
ATATTCACGT | 1.04
AAGCTGGCCG | 0.967
CTAACTTT | 1.02
AAGTTAGAGT | 1.01
AATGTCGCCT | 1.02
TTGAGCGGTG | 1.02
TAGGAGTAT | 0.984
CTCCTGCTTA | 1.75
GCCGGCGATC | 1.01
CATTATGTCA | 0.978
AACGACGCTT | 1.06
ACGGCAGCAA | 1.66
CCACCCACTC | 1.86
CATTTTTACT | 1.04
CCGCCACTCT | 3.02
CGTACGTAAC | 1.56
AGCGTCGTGG | 1
GTTAGTCCCC | 1.08
CGCTTGTA | 1.02
TCCGCCAAAT | 3.02
AGATCGAGCG | 1.01
TGGCGTAAAG | 0.952

Sequence | switch fluorescence ratio
CTGGCAGTCT | 0.984
AAAGGCACTT | 1.04
AATTCACTGG | 1.05
CGGGTCGGCT | 0.959
GCCGACGGA | 1.04
ACAATACAGG | 1.21
GACGGCCGGC | 1.09
CAGGAGTGCA | 1.01
TTCGGGGTCA | 0.976
ACGATATTGC | 1.15
AAGTGAGGTA | 0.951
TTGCACTCGG | 1
ATAGGATGGT | 1
GCATTATCGT | 0.982
AGTTAGACAT | 0.957
TATACAGGTT | 0.998
GCGCTTCATG | 1.13
GCGGGAAGAA | 0.982
TCAAATTTCG | 0.986
